Results taken from PubChem BioAssay AID504832 (National Center for Advancing Translational Sciences (NCATS), 2011).
Screen size: about 310,000 compounds; about 18,000 (5.8%) were called active. Inconclusive results, whose numbers are uncertain, are shown with a selection of clear calls. Calls come from the whole dose curve; as a rule, active = well fitted inhibition curve with a large enough effect; inconclusive = small, poorly fitted or top-dose-only effect, or another doubt; inactive = no such curve, though single readings can be large or run the other way. Potencies of inconclusive entries are left out as doubtful fits.

Assay: Primary qHTS for delayed death inhibitors of the malarial parasite plastid, 48 hour incubation
Details: P. falciparum luciferase growth in erythrocytes; series mostly up to 28.7 µM; activity change, negative = inhibition: at the top concentration
Summary of the method: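 Luciferase-expressing parasites in RBCs, 2% Hct / 0.1% parasitemia final; RPMI 1640 + 0.5% Albumax; 37 C, 5% CO2, one generation; luminescence read-out, lower signal = inhibition.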
% is set by controls: 0 for no effect and ±100 for the full control effect; potency is the fitted concentration of half-maximal effect; tags give direction and shape of the fitted curve.

SMILES | Potency | activity change, negative = inhibition
O=c1[nH]c(C2CCN(S(=O)(=O)c3ccc4c(c3)OCCO4)CC2)nc2c1nnn2Cc1ccccc1 | inconclusive [inhibitor, single point] | 
CC(C)OC(=O)CN1C(=O)C(=O)c2ccccc21 | active: 2.62 µM | 
Cc1cccc(C2c3[nH]c4ccccc4c3CCN2C(=O)c2cc3c([nH]c2=O)CCCC3)n1 (stereo not given) | inconclusive [inhibitor, single point] | 
CCN1CCN(c2sc(S(C)(=O)=O)nc2S(=O)(=O)c2ccc(Cl)cc2)CC1 | inconclusive [inhibitor, partial curve, poor fit] | 
COC(=O)c1ccccc1NC(=O)c1cn(-c2ccc(C)c(C)c2)c(=O)c2ccccc12 | inconclusive [inhibitor, single point] | 
C=C(C(=O)Oc1ccccc1C(C)(C)C)c1ccccc1 | inconclusive [inhibitor, single point] | 
Cc1ccc(NC(=O)NNC(=O)C2CCN(Cc3ccc(F)cc3Cl)CC2)cc1 | inconclusive [inhibitor, full curve] | 
CCCCOC(=O)C1=C(N)OC2=C(C(=O)CC(C)(C)C2)[C@]12C(=O)N(C)c1ccccc12 | inconclusive [inhibitor, single point] | 
COc1ccc(OCc2cccc(C(=O)Nc3ccc(CN4CCCCC4)cc3)c2)cc1 | inconclusive [inhibitor, partial curve, poor fit] | 
CCCNC(=O)c1ccc(N2CCC3(CC2)CC(c2ccccc2)=NO3)c(NC(=O)c2ccccc2)c1 | inconclusive [inhibitor, full curve] | 
CCn1cc(C(=O)N2CCN(C3CCCCC3)CC2)c2cc(OC)c(OC)cc2c1=O | inconclusive [inhibitor, single point] | 
CC1Cn2c(CCc3ccccc3)nnc2S1 (stereo not given) |  | inactive: 46.3%
CCOc1ccc(N(CC(=O)NC2CCCCC2)C(=O)CCC(=O)Nc2ccccn2)cc1 | inconclusive [inhibitor, single point] | 
Cc1cc(C)c(C)c(S(=O)(=O)N2CCN(CC(=O)Nc3sccc3C#N)CC2)c1C | inconclusive [inhibitor, single point] | 
CC(C(=O)N1CCCC1)N1CCN(S(=O)(=O)c2ccc(C(C)(C)C)cc2)CC1 (stereo not given) | active: 0.828 µM | 
CCOC(=O)N1CCN(C(=O)c2ccc(N(Cc3ccc(Cl)cc3)S(C)(=O)=O)cc2)CC1 | inconclusive [inhibitor, partial curve, poor fit] | 
O=C(Cn1cc(C(=O)C2CCCCC2)c2ccccc21)NCC1CCCO1 (stereo not given) | inconclusive [inhibitor, single point] | 
Cc1nn(C)cc1S(=O)(=O)NCc1ccc2c(c1)OCO2 |  | inactive: 15.5%
CCOC(=O)c1sc(Nc2ccc(Br)cc2)nc1C | inconclusive [inhibitor, single point] | 
Cc1cc(C)n2nc(SC(C)C(=O)N3CCCC3)nc2n1 (stereo not given) | inconclusive [inhibitor, single point] | 
CNC(=S)Nc1ccc(OC(F)(F)F)cc1 |  | inactive: 40.5% [at 5.75 µM]
CCCN1C(=O)c2cc(C(=O)Nc3ccccc3OC)ccc2C1Nc1ccccc1OC (stereo not given) | active: 10.4 µM | 
CS/C(=C(/C#N)S(=O)(=O)c1ccc(Cl)cc1)N1CCOCC1 | inconclusive [inhibitor, single point] | 
COc1ccc(S(=O)(=O)N2CC(O)CC2C(=O)Nc2cccnc2)cc1 (stereo not given) |  | inactive: 12.4%

SMILES | Potency | activity change, negative = inhibition
CN(Cc1c(F)cccc1Cl)C(=O)c1cnc2ccccc2n1 | inconclusive [inhibitor, partial curve, poor fit] | 
COc1ccc(NC(=O)c2cccc(N3C(=O)C4C5C=CC(C5)C4C3=O)c2)cc1Cl (stereo not given) | inconclusive [inhibitor, single point] | 
ON1C(c2ccccc2C(F)(F)F)N(O)[C@H]2CCCC[C@H]21 (stereo not given in full) |  | inactive: -0.0927%
CC(=O)Nc1c(C(=O)Nc2ccc3c(c2)OCO3)oc2ccccc12 |  | inactive: 252%
CCOc1ccc(CNC(=S)Nc2ccccc2)cc1Cl | inconclusive [inhibitor, single point] | 
Cc1csc(NC(=O)CSc2nnc(-c3ccoc3C)o2)n1 |  | inactive: -8.52%
CC(C)N(Cc1nnc(-c2ccccc2Br)o1)C(=O)c1cc(Cl)nc2ccccc12 | active: 9.28 µM | 
CC(C)(C)C(=O)Nc1ccc(C(=O)N/N=C/c2ccccc2OC(=O)c2ccc(Cl)cc2)cc1 | inconclusive [inhibitor, single point] | 
COc1cccc(C(=O)NNC(=O)C(=O)Nc2ccc(OC)cc2OC)c1 |  | inactive: 12.3%
COc1ccc(Cn2c(O)c(C=NCCCn3ccnc3)c(=O)[nH]c2=O)cc1 | inconclusive [inhibitor, full curve, poor fit] | 
NNC(=O)c1ccc([N+](=O)[O-])c(CS(=O)(=O)c2ccc(Cl)cc2)c1 | inconclusive [inhibitor, single point] | 
O=C(CSc1ccc(Cl)cc1)N1CCN(c2ncc(C(F)(F)F)cc2Cl)CC1 | inconclusive [inhibitor, single point] | 
COc1ccc(C(CNC(=O)C(C)Oc2ccc(Br)cc2)N2CCCC2)cc1 (stereo not given) | active: 11.7 µM | 
Nc1ccccc1Sc1nc2ccccc2[nH]1 | inconclusive [inhibitor, partial curve] | 
COc1cccc(C(=O)C2CN(C)CC2c2ccc(Cl)cc2)c1 (stereo not given) | inconclusive [inhibitor, partial curve] | 
COc1ccc(CCn2nnnc2C(c2ccc(C)cc2)N2CCN(C)CC2)cc1OC (stereo not given) | inconclusive [inhibitor, partial curve] | 
O=C(NCc1ccccc1)C1=C[C@@H](c2csc3ccccc23)C[C@@H](OCCCCO)O1 | inconclusive [inhibitor, partial curve] | 
N#C/C(=C\c1ccc(-c2ccc([N+](=O)[O-])cc2)o1)C(=O)Nc1nc(-c2cccs2)cs1 |  | inactive: 13%
C=CCN1C2=NCCCN2c2ccccc21 |  | inactive: -11.4%
Cc1ccc(SCCNC(=O)c2ccc(C)c([N+](=O)[O-])c2)cc1 |  | inactive: -17.4%
CCN(CC)C(=O)COc1ccc2c(-c3ccccc3)cc(=O)oc2c1 | inconclusive [inhibitor, full curve, poor fit] | 
CC(C)c1nc(NCCO)c(C#N)c2c1CCCC2 |  | inactive: 11.6%
COc1cccc(NC(=O)C2CCCN2S(=O)(=O)c2ccc3c(c2)C(C)(C)C(=O)N3C)c1 (stereo not given) | inconclusive [inhibitor, partial curve, poor fit] | 
Cc1cccc(S(=O)Cc2ccc(C(=O)N3CCOCC3)o2)c1 (stereo not given) |  | inactive: 4.46%

SMILES | Potency | activity change, negative = inhibition
CCOC(=O)c1c(C)nc2c(c1-c1cc(OC)ccc1OC)C(=O)c1ccccc1-2 |  | inactive: -7.72%
COc1ccc(C(=O)NCc2cc3ccccc3n2C)cc1 |  | inactive: 11.3%
Cc1ccccc1N/N=C/c1ccc(N2CCOCC2)cc1 | inconclusive [inhibitor, single point] | 
C/C(=N\NC(=S)NC(C)C)c1ccc(-n2ccnc2)cc1 | inconclusive [inhibitor, partial curve, poor fit] | 
COc1ccc(NS(=O)(=O)c2ccc3[nH]c(=O)[nH]c3c2)cc1 |  | inactive: 6.1%
CCOc1ccc(Br)cc1CSC(=N)N | inconclusive [inhibitor, full curve, poor fit] | 
COc1cc(CNCCN2CCOCC2)ccc1OCc1c(Cl)cccc1Cl | inconclusive [inhibitor, single point] | 
COc1ccc2[nH]c(S(=O)Cc3ncc(C)c(OC)c3C)nc2n1 (stereo not given) | active: 9.53 µM | 
CCC(=O)Nc1ccc(-c2csc(NNC(C)=O)n2)cc1 |  | inactive: -0.634%
O=C(NC1CCCC1)C(c1ccncc1)N(CCCN1CCOCC1)C(=O)c1ccc(-c2ccccc2)[nH]1 (stereo not given) | inconclusive [inhibitor, partial curve] | 
CN(CC(=O)Nc1cccc(F)c1)C(=O)c1ccc(-c2ccc(Cl)cc2)o1 | active: 1.85 µM | 
COc1cc(-c2nnc(SCC(=O)c3ccccc3)o2)cc(OC)c1OC |  | inactive: 4.32%
COc1cc(S(=O)(=O)N2CCC(c3nc4ccccc4s3)CC2)ccc1S(=O)(=O)NC1CCCC1 | inconclusive [inhibitor, full curve, poor fit] | 
C=CCN(c1ccccc1)S(=O)(=O)c1cccc(C(=O)Nc2nnc(SCC)s2)c1 |  | inactive: 3.62%
CC(C)CNC(=O)c1cc(=O)[nH]c2ccc(S(=O)(=O)Nc3ccc(F)cc3)cc12 |  | inactive: 9.01%
O=C(Nc1nnc(-c2cccnc2)o1)c1cccc(Cl)c1 | inconclusive [inhibitor, single point] | 
CCOC(=O)c1cnc2c(cnn2C)c1NCCC(O)C(F)(F)F (stereo not given) | inconclusive [inhibitor, full curve] | 
O=C(Nc1ccccc1-c1ccccc1)c1ccccc1[N+](=O)[O-] | inconclusive [inhibitor, full curve, poor fit] | 
CCCSc1ccc([C@@H]2[C@H]3C(=O)N(CC)C(=O)[C@H]3[C@]3(C(=O)OC)CCCN23)cc1 | active: 9.28 µM | 
c1cc2c(cn1)cnc1cscc12 |  | inactive: 8.44%
Cn1cc(/C=C/C(=O)N2CCCC(C(=O)c3cccc4ccccc34)C2)cn1 (stereo not given) |  | inactive: -11.1%
COC(=O)N[C@@H]1C[C@H]2[C@@H]3CC[C@H]4C[C@@H](OC)CC[C@]4(C)[C@H]3CC[C@@]12C | inconclusive [inhibitor, single point] | 
